# Experimental data published in the supplement of paper PMC8728848.
# Some of the results follow.
# B1: Clec2 (Mus musculus), Q9JL99 (protein)
# chain: MQDEDGYITLNIKPRKQALSSAEPASSWWRVMALVLLISSMGLVVGLVALGIMSVTQQKYLLAEKENLSATLQQLAKKFCQELIRQSEIKTKSTFEHKCSPCATKWRYHGDSCYGFFRRNLTWEESKQYCTEQNATLVKTASQSTLDYIAERITSVRWIGLSRQNSKKDWMWEDSSVLRKNGINLSGNTEENMNCAYLHNGKIHPASCKERHYLICERNAGMTRVDQLL
# Legend:
# Test in all cases: glycan array binding signal (z-score within array); higher = stronger binding
# Settings in all cases: glycan notation: IUPAC condensed, linker removed
# [1] = biological target: Neu5Gc(a2-8)Neu5Gc(a2-3)Gal(b1-4)GlcNAc(b1-3)Gal(b1-4)GlcNAc
# Summary of the method: (§1)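 The Consortium for Functional Glycomics database supplied 3228 glycan arrays, of which those lacking an available protein sequence were dropped. The binding signal, a within-array Z-score, was averaged across arrays of the same protein sequence and across linkers. Negative scores can be read as non-binding.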
# [2] = biological target: Neu5Gc(a2-8)Neu5Gc(a2-6)Gal(b1-4)GlcNAc
# Summary of the method: as §1
# [3] = biological target: Neu5Gc(b2-6)Gal(b1-4)GlcNAc
# Summary of the method: as §1
binder,measurement,setting,value
B1,glycan array binding signal (z-score),[1],-0.34
same,glycan array binding signal (z-score),[2],-0.121
same,glycan array binding signal (z-score),[3],0.19
